Results are given in words; binding and its absence hold for the method and conditions named. Binding seen in cells or lysates may run through a third protein. Some binding calls cover weakened binding; strength is not graded here.
Legend:
HA-OTULIN^C105X = HA-OTULIN^C105X (UniProt Q96BN8); assay: co-IP; HA-OTULIN constructs and FLAG-SCRIB transiently co-expressed in HEK293T; lysis in 50 mM Tris pH 7.4, 100 mM EDTA, 150 mM NaCl, 0.5% Triton X-100; IP with anti-FLAG or anti-HA antibody and protein A/G agarose, washes with 500 mM NaCl; immunoblot
HA-OTULIN^Δ54 = HA-OTULIN^Δ54 (UniProt Q96BN8); assay: as above
HA-OTULIN (WT) = HA-OTULIN (WT) (UniProt Q96BN8); assay: as above
FLAG-SCRIB = FLAG-SCRIB (UniProt Q14160); assay: as above
[1] = biological target: FLAG-OTULIN (transiently expressed) (UniProt Q96BN8); assay: co-IP; reciprocal co-immunoprecipitation of FLAG-OTULIN and Dvl2 constructs from transfected HEK293T cells; lysis buffer as in a3 with 4 μM MG132 added; immunoblot

The chains behind the UniProt entries cited, without tags or fusion partners. Where a name states a change or a piece, a line headed by the entry shows the natural chain unless it says otherwise. Residues count along the entry.
UniProt Q96BN8: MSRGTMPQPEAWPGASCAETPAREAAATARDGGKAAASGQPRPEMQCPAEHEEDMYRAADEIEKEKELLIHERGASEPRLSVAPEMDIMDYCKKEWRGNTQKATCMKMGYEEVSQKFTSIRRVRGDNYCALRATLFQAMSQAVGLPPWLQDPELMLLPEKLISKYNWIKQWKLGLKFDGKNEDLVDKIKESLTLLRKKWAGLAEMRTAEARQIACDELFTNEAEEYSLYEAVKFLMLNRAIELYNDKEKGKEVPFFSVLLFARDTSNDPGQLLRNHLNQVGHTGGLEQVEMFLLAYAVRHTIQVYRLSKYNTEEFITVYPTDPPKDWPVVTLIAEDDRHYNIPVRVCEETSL
HA-OTULIN^C105X: residues 1-105 of Q96BN8
HA-OTULIN^Δ54: residues 55-352 of Q96BN8
UniProt Q14160: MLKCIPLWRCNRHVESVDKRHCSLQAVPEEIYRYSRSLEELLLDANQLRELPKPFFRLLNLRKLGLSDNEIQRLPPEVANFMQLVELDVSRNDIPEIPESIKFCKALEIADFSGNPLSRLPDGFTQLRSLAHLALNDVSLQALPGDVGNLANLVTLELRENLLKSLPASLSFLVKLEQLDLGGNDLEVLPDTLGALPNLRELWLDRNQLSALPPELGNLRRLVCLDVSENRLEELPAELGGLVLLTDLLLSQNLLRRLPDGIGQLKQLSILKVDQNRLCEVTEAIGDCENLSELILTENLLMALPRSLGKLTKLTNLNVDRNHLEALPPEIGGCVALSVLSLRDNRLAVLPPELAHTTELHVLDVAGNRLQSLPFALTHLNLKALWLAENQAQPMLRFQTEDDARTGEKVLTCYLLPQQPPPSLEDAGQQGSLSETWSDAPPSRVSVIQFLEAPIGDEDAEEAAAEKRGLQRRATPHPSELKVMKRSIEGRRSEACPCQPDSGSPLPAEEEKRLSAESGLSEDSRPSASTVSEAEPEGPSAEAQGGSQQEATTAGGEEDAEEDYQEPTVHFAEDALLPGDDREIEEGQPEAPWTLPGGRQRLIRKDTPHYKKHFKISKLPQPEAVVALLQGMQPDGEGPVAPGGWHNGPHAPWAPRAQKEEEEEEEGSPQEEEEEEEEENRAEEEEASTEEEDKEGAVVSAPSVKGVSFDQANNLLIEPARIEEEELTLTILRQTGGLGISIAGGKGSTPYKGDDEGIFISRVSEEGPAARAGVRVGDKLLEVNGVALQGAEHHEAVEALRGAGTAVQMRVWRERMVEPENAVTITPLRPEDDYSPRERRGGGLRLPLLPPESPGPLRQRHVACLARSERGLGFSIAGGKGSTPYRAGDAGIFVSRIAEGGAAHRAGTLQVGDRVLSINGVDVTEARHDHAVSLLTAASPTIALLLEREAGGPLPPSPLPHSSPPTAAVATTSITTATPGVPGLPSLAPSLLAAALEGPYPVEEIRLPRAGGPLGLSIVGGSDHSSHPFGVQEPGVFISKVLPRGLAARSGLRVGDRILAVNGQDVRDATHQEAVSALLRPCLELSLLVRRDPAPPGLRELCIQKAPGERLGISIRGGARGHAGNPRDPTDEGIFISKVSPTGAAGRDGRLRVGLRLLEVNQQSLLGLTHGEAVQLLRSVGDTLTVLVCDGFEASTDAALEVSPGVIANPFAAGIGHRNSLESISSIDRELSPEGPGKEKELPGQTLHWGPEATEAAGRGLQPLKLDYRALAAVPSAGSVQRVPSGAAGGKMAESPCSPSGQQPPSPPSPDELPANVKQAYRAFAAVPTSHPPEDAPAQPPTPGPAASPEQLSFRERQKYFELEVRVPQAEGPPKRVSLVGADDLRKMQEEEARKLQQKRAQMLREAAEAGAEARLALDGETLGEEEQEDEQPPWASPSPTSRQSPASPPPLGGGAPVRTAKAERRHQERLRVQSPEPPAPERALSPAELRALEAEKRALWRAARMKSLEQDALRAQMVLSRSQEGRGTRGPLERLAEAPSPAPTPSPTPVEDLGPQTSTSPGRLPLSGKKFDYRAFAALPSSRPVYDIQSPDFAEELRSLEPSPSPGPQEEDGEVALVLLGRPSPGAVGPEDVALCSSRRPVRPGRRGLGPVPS

With FLAG-SCRIB (from UniProt Q14160 1-1655) the binding (HA-OTULIN^C105X) was “no binding”, the binding (HA-OTULIN^Δ54) was “binds” and the binding (HA-OTULIN (WT)) was “binds”.

“HA-OTULIN (WT) (from UniProt Q96BN8 1-352) (enzyme)” was tested, and the binding (FLAG-SCRIB) was “binds”.

“HA-OTULIN^C129S (from UniProt Q96BN8 1-352) (enzyme)” was tested, and the binding (FLAG-SCRIB) was “binds”.

In the case of “HA-OTULIN^W96R (from UniProt Q96BN8 1-352) (enzyme)”, the binding (FLAG-SCRIB) is reported as “binds”.

B1: Dishevelled 2 (Dvl2) (protein, UniProt Q60838 1-736)
chain: MAGSSAGGGGVGETKVIYHLDEEETPYLVKIPVPAERITLGDFKSVLQRPAGAKYFFKSMDQDFGVVKEEISDDNARLPCFNGRVVSWLVSSDTPQPEVAPPAHESRTELVPPPPPLPPLPPERTSGIGDSRPPSFHPNVSSSHENLEPETETESVVSLRRDRPRRRDSSEHGAGGHRPGGPSRLERHLAGYESSSTLMTSELESTSLGDSDEDDTMSRFSSSTEQSSASRLLKRHRRRRKQRPPRMERTSSFSSVTDSTMSLNIITVTLNMEKYNFLGISIVGQSNERGDGGIYIGSIMKGGAVAADGRIEPGDMLLQVNDMNFENMSNDDAVRVLRDIVHKPGPIVLTVAKCWDPSPQAYFTLPRNEPIQPIDPAAWVSHSAALTGAFPAYPGSSSMSTITSGSSLPDGCEGRGLSVHMDMASVTKAMAAPESGLEVRDRMWLKITIPNAFLGSDVVDWLYHHVEGFPERREARKYASGLLKAGLIRHTVNKITFSEQCYYVFGDLSGGCESYLVNLSLNDNDGSSGASDQDTLAPLPGATPWPLLPTFSYQYPAPHPYSPQPPPYHELSSYTYGGGSASSQHSEGSRSSGSTRSDGGAGRTGRPEERAPESKSGSGSESELSSRGGSLRRGGEPGGTGDGGPPPSRGSTGAPPNLRALPGLHPYGAPSGMALPYNPMMVVMMPPPPPPVSTAVQPPGAPPVRDLGSVPPELTASRQSFHMAMGNPSEFFVDVM
With B1 the binding [1] was “binds”.
